# In the supplement of paper PMC11417369:
# ± gives the standard deviation of the averaged measurements. The list shows a part of the results.
# System: PfAP2-EXP AP2 domain (GST-tagged)
# Assay: gcPBM binding intensity (ln(normalized median fluorescence intensity)); higher = stronger DNA binding
# Procedure, shortened: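 An Agilent 4 × 180k array of primer-extended double-stranded 36-bp intergenic genomic probes, with negative controls, was incubated for 1 h with GST-tagged P. falciparum DNA-binding domains expressed in E. coli. Alexa488 anti-GST antibody detected bound protein, scanned at 488 nm. Binding intensity is the highest Masliner-normalised natural-log median intensity across replicate spots of either probe orientation.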
row,Sequence,gcPBM binding intensity (ln)
1,AATAGAAAAAAAAAATGTACAAAATGTTTATAAAAA [XGTACX_site4635],8.63 ± 0.47
2,TCATTTTAAGGAAAAAGTACAAAATAATATGTTCCT [XGTACX_site1903],8.35 ± 0.36
3,ACCTATTTCAAACACACACACACACCCACAAACATA [CACACA_site977],8.71 ± 0.4
4,ACGAATATAGGATGTTTGCACTGTACCAATAAATGA [GTGCAC_site9808],8.65 ± 0.27
5,TTCTTAATACAAATATGTACATATATATATATATAT [XGTACX_site757],10.1 ± 0.45
6,AAATTACCCTTGTGTACACATATATTATCTGTATTA [CACACA_site4514],8.83 ± 0.45
7,AAATGAATATAAAATATACACACTTATATATTGAAT [CACACA_site202],8.15 ± 0.35
8,TATTGAAAGTGAATTATAACATTAAAAATATATATA [TGCATGCA_negctrl_site566],8.13 ± 0.27
9,CAATATAAAAGACACACACACAAACATATATTTATA [CACACA_site7697],8.71 ± 0.45
10,TGAATATGTAAATGCACACCAAAAAAAAAAAAAAAA [CACACA_site3566],8.56 ± 0.15
11,GAAGGAAATAAATCAACACACATATATTATAGATAT [CACACA_site7095],8.6 ± 0.4
12,ATAATGTAAAATAAATGTACGCAATATATAAAAAAT [XGTACX_site5747],9.06 ± 0.38
13,TTTTTTTTTATTATCATGCACACATTTTTTTTTTTT [CACACA_site2254],8.6 ± 0.38
14,AAAAAAAAAAAACACACACACACATACAAAATATAT [CACACA_site1448],8.64 ± 0.39
15,ACATATGAATATTTTTGTACGTATATTGTTATTCTT [XGTACX_site4720],8.82 ± 0.47
16,GTAATTTAAATAACAAGTACTAATGTGGATAAGCAG [XGTACX_site1163],9.12 ± 0.4
17,AATTATACGAAATAAAACTTAATAGACAAAAAATTA [CACACA_negctrl_site1384],8.6 ± 0.37
18,ATAATATGCAATATTACACACAATTCATCATTTTTT [CACACA_site7477],8.23 ± 0.32
19,GTATATTTAAATAAAAGTACGTAAAGATATATTTAA [XGTACX_site8087],8.57 ± 0.38

row,Sequence,gcPBM binding intensity (ln)
1,AACAAAATAAAACACACACACAAATGTACATATATA [CACACA_site2424],8.9 ± 0.49
2,TAGAAGCATCATTTTACACACATGCAAATGTAAACT [CACACA_site6973],8.65 ± 0.35
3,ATTTTGTATTGACGCTGTACAAACATTAATATAATA [XGTACX_site2496],8.48 ± 0.35
4,TTTTGCGTAGCAACGAGGTTTTTAAAAATGTAACCA [GTGCAC_negctrl_site691],8.46 ± 0.49
5,AAAAGGAACGGACACACACACATATATATATATATA [CACACA_site5894],10.2 ± 0.49
6,TATGCAAATTAATAATGTACGAAATATTTATAATTT [XGTACX_site2324],8.35 ± 0.47
7,AATAAATTAGAAGGATGTACTTTGTTTAATATAGAG [XGTACX_site1943],8.55 ± 0.32
8,TAATATAATCTGAGTGCACACAAATAAATAAACATA [CACACA_site8032],8.965 ± 0.064
9,AGGTTATATATGAACAAAAATAAAATATTCATAGGC [TGCATGCA_negctrl_site46],8.64 ± 0.38
10,ATATGTAAAATGAAGATACATACATACATACATACA [CACACA_negctrl_site715],9.16 ± 0.21
11,ATATTATATATATGATGTACTAAATATATTATTATG [XGTACX_site1703],8.33 ± 0.35
12,ATGTTATAAAATATATGTACATATTTATATAAAATA [XGTACX_site5766],8.54 ± 0.39
13,TCTATTAATGAATATACACACATTATATATATATAT [CACACA_site5410],10 ± 0.49
14,TTTATATTCTTTTTTTAACACACAAAAAAAATAAAA [CACACA_site8574],8.17 ± 0.42
15,TATATAAAAAGTAATTGTACATATATATATATATAT [XGTACX_site7953],10.1 ± 0.42
16,ATATATTTATATAAATGTACACGTGAATATATAATA [XGTACX_site1166],8.97 ± 0.39
17,ATAAATAATTAGAATTGTACAAAAATTATATATATG [XGTACX_site5107],8.47 ± 0.33
18,TATTTTATATTATCATGTACAAAAAAAAAGAAAAGA [XGTACX_site5379],8.54 ± 0.57
19,AAACATAAATATGAGAGTACAAAAAATATTATGAAT [XGTACX_site151],8.9 ± 0.45

row,Sequence,gcPBM binding intensity (ln)
1,TGAAAAAAAAAATGCACACGCATACATATAATATGT [CACACA_site641],8.58 ± 0.45
2,ATCTCTTAAATTTTACGTACTTATTTTATCTTCTTA [XGTACX_site8877],9.02 ± 0.42
3,TTATAATATATTACAAGTTCATTCATATAATATGTT [CACACA_negctrl_site1695],8.28 ± 0.48
4,AAAAATAAAATATATATATATATATATATATATATA [CACACA_negctrl_site58],10 ± 0.46
5,AATAAATACATACATACATGCATACATATATCTCAA [TGCATGCA_site1040],8.68 ± 0.33
6,TATTTTTATATATATACACACTTACAGATATATATT [CACACA_site5905],8.62 ± 0.36
7,AAAGGGGAGATATGAACACACAAAAAAAAAATATAT [CACACA_site7378],8.82 ± 0.59
8,AAATAAAATTTTTGTTGTACTTATTTTTAGTATACT [XGTACX_site4254],8.52 ± 0.42
9,AATATTTACAGACATGCGCACACATAAATAAATAAT [CACACA_site8760],8.94 ± 0.37
10,AGAAAGGATATAAGCGTAGCTATATCATAAAAAATG [GTGCAC_negctrl_site332],8.49 ± 0.37
11,TATATATATTTTAAATGTACTTATAAATTACCACTT [XGTACX_site5673],8.44 ± 0.25
12,GTATATATATATTTATGTACTTACCTACATAATTAT [XGTACX_site4435],8.84 ± 0.24
13,TAAATAAATTTGCACTGTACGCAAAAAAAAAAAAGA [XGTACX_site8781],8.64 ± 0.56
14,CCTTTTAAGAGTTGCACACGTACAAAAAAAAAAAAA [CACACA_site3492],8.6 ± 0.45
15,ACACATAAATGTATATATATATAAATATATGTATGT [CACACA_negctrl_site1532],8.41 ± 0.31
16,AATAATAAAAAATACGCACACATGTAAACGTATGTT [CACACA_site3336],8.44 ± 0.3
17,GGCGATATAGAACTACGTACTTATACAAATTATAAT [XGTACX_site2307],8.68 ± 0.4
18,ATAGCAATAATGGAAAGTACAAAAAAACTTGTTATA [XGTACX_site8518],8.62 ± 0.34
